Test results: the supplement of paper PMC3334620
The full ranking holds about 33,000 sequences; the median of “E-score (-0.5 to 0.5)” is about -0.036, and the highest 2% start at about 0.37. The list shows a part of the results.

Molecular target: T1, Yer064c (UniProt P40041)
T1 sequence: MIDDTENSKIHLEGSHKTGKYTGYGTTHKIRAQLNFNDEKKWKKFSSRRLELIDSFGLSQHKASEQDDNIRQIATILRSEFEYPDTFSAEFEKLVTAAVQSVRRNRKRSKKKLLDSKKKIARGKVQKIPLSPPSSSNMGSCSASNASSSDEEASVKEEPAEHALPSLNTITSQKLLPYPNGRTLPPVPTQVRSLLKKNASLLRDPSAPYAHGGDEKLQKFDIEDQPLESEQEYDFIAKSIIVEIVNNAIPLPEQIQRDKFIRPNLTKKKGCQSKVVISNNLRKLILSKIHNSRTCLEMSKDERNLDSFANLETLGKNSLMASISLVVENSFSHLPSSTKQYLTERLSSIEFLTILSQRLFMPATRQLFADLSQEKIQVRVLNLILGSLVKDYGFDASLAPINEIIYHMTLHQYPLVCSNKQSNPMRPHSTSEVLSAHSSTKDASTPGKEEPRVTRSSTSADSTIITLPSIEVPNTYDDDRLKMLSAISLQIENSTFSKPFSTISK
Assay: PBM E-score (8-mer binding enrichment) (E-score (-0.5 to 0.5)); higher = stronger / more preferred TF binding; most listed sequences are background and not binding sites
Settings: protein concentration: 200 nM; construct: GST-full length
In short: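 For each ungapped eight-base word taken together with its reverse complement, the Universal PBM Analysis Suite assigned an E-score. Binding data came from GST-tagged yeast transcription factors, applied at about 100-200 nM, on universal all-10-mer Agilent arrays made double-stranded by primer extension. Fluorescent anti-GST marked bound protein, and scans were normalised with masliner.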

Sequence	PBM E-score
GCCAAAGC	-0.031
AATGATAG	-0.0733
ATCGTTTG	0.219
TACCGACA	-0.00853
AAATGGTC	-0.0743
CGCATTCC	-0.248
AAAGCCAT	0.163
ATCTCAGC	0.0312
AACATCAG	0.0803
CACAGGGC	-0.193
CACGGCAA	-0.0572
CGTGCCCA	-0.23
TACGGAAA	2e-05
ACGACACT	0.0679
AGCCCATC	0.211
ACAGTCGC	0.196
AGGCTCGA	-0.186
CCGACCAA	-0.17
GGGCAGCA	-0.0516
CCACTCTC	-0.198
GTTAATAA	0.117
CTGTCGAC	-0.0328
GCAAGACA	-0.184
TGGCCCAA	-0.31
CCACGGCG	-0.0296

Sequence	PBM E-score
CCGGTGGA	-0.172
ACGAGTGG	-0.0808
AGTGATTG	0.362
ACGTCGTA	-0.13
ATTCTAGA	0.0719
AAGGTAGG	-0.0709
CAGGTCAA	-0.193
GGACGCCC	-0.325
TGGTGAAA	-0.263
AACGGTCT	-0.188
AAACACTG	0.0608
GAGGAAAA	-0.0398
CGATCATA	0.0235
CCAGGTCG	-0.0791
TAAAACCA	0.106
GCATGCAA	-0.121
ATCTGCGC	-0.188
ACGCGCTA	-0.124
CAGGCAAG	-0.0893
CTTCAGTA	0.0859
CGCCGCCC	-0.281
CTGCAGCA	-0.244
ATCCCACA	-0.101
ATTCAGCC	0.0873
ACGGGGTC	-0.286

Sequence	PBM E-score
CGAAAGAC	0.0552
GGTGTAAC	0.05
ACGGCGCA	-0.0171
ACATGAGG	-0.103
ACCGTTGG	-0.106
CATTAGTC	0.421
CTTTTACA	0.0266
GCAGGCCA	-0.0647
AGGGTCTA	-0.153
GAATATGA	0.204
GAAAGAGC	-0.153
CCCAAACG	-0.226
CCCACGGC	-0.171
ATGCACGG	-0.106
CGCTTCAG	-0.167
CATCTTAA	-0.0264
GCACCTCA	-0.0741
AAATGACG	0.0769
AACCTGAG	-0.154
CTCAACGC	-0.164
CGAGGTAG	-0.0916
AGTGCATC	-0.144
ACAACCCA	-0.0889
CGTCGACG	-0.069
GTAGTTGA	0.143

Sequence	PBM E-score
AAGGCGGA	-0.14
AAGGGAGG	-0.186
ACGTTATA	0.0989
AGTGCACC	-0.156
ACACACAG	0.0924
CATGCGGA	-0.0429
CCAGGATA	-0.179
ACAACGGC	-0.148
GTCTACTA	0.162
CGCACCCA	-0.178
CAGCACGC	-0.145
ATGATGAG	0.318
ACCCTCGC	-0.21
CATGAGAG	0.034
ATACAATA	-0.0154
GTGGATCA	0.0498
AGGCGTTG	-0.274
ACACCTCC	-0.0443
CTGATGAC	0.296
ACCAATCT	-0.0242
GCGGATGA	0.13
CTATCGCC	-0.136
AAGCAACT	-0.0838
GGAATTTA	-0.0855
AACCTCCC	-0.167

Sequence	PBM E-score
CGGTGATA	-0.0395
CGCTAATC	0.111
CCGTTAGC	0.00558
CAGATTCC	-0.0951
AAAAAACG	-0.0912
AAATCGTG	0.166
TACCGCGA	0.0749
GTGAAAGA	0.0434
CTGACCTC	-0.00583
AGTAGTTG	0.0575
CACCTCAC	-0.00655
AGGCAGCG	-0.245
ATCAGAAG	0.062
GCCGGACC	-0.251
CTTGTATC	-0.0365
TGAGTGAA	0.109
GATGTCCA	-0.203
GAGATACC	-0.0812
CAAGGAAG	0.017
GTAGGGCA	-0.218
ATCCCTTG	-0.0643
AATCACCC	0.426
GCTGTAAC	0.115
AGAGGGGC	-0.289
AAAGATAC	-0.041

Sequence	PBM E-score
ACCGCCTC	-0.307
CTATTCAG	0.0874
AAGGTCGC	-0.278
ACAGATCT	-0.118
ACGGGACA	-0.204
CAGATTTA	0.168
AAGGCAAC	0.0345
AAGATCCT	-0.00223
GCCCAAGA	-0.156
AATTGAGG	-0.28
ATATATCA	-0.0122
ACCATGAA	0.141
ACCAAACT	-0.129
GTGGTCCA	0.00143
GTGCATAA	0.0645
CGGGCGCC	-0.34
ATGCCAGA	-0.0495
GCTTCCAC	-0.26
AGTTGGCC	-0.0513
CATTCAAC	0.0337
ATTAGATG	0.209
TTAAAGAA	0.163
TAAGGGAA	-0.114
CATCCGGC	-0.0312
CCTCGGCC	-0.254

Sequence	PBM E-score
ACACCCAC	0.173
CGTTATAC	-0.0567
AGTAACTA	0.13
CAAATAAG	-0.106
AGAACCGC	0.00146
AGACACTC	0.0733
CTTAGTCC	0.37
TCACTAGA	0.178
CGTGTGGA	-0.182
TACCGCTA	-0.042
TAGCCGAA	-0.146
CAGTAATG	0.0306
AACCCGTC	-0.26
GCAGTAAC	-0.0264
GTCGCCGA	0.038
ATACTCTA	-0.0299
GAGACACA	0.288
AAAAACTA	0.0388
ACTTCAAC	0.148
AGCGACAG	-0.0959
AGCATGGA	0.0438
CAAAATAG	-0.15
